Target: T1, phospholipid scramblase 3 (PLS3), human, isoform not stated (human, UniProt Q9NRY6 1-295, limits assumed, phosphothreonine, position not stated (shown by the anti-PT blot of immunoprecipitated PLS3))
T1 construct: also called endogenous PLS3; wild-type PLS3
Assay: co-immunoprecipitation with PLS3 antibody, Western blot with Bcl-xL antibody

- binding result: no binding
B1: Bcl-xL (other)
chain: not shown

Reference: patent publication US20060172958A1 (published 2006)
